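Each compound was tested at five concentrations against cells in 96-well plates for 48 hours. The concentration for 50% growth inhibition is given as GI50.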 Activity calls are given as the source filed them. Rule as the data show it: active = GI50 up to about 1.1 µM and inactive = higher.

For the assay, the system named is NCI-H322M. As to the kind of experiment: DTP human tumour cell line panel, 48 h.
As a reminder, the GI50 is the concentration at which growth is held to half of that of the control. For the molecule `N=C(N)SCC(=O)O`, the GI50 is inactive: > 100 µM. As for `c1ccc2c3ccn4ccc5c6ccccc6[nH]c5c4c-3nc2c1`, the figure is active: 1.07 µM.

For the molecule `CC(CO)(CO)Nc1ncnc2ccccc12`, the GI50 is inactive: > 100 µM. Take `COC(=O)C(=O)C(C(=O)C(=O)Nc1ccccc1C(N)=O)c1nc2ccc(C(=O)c3ccccc3)cc2nc1O` (centres undefined): the GI50 is inactive: > 100 µM. On to `O=C1CC(c2ccccc2)n2c(nc3ccccc32)N1` (centres undefined), for which the GI50 is inactive: > 100 µM. As for `COc1ccc2c(c1)CN1C(=N2)CSC1c1cccc(Br)c1` (centres undefined), the figure is inactive: 27.9 µM; as for `COc1ccc2c(c1)-c1nc(=S)n(CCN(C)C)c3ccc([N+](=O)[O-])c(c13)N2`, active: 0.807 µM. Take `Nc1c(Cl)ncnc1NCCCNc1ncnc(Cl)c1N`: the GI50 was inactive: > 100 µM. For `O=C1N/C(=N/N=C/c2ccccc2)N/C1=C\c1c[nH]c2ccccc12`, the GI50 was inactive: > 100 µM. Turning to `COc1ccc(NC(=S)N/N=C/c2c(C)n(C)n(-c3ccccc3)c2=O)cc1`, the GI50 is inactive: 74.1 µM.

With `O=C(N/C(=C\c1ccc([N+](=O)[O-])cc1)c1nc2ccccc2[nH]1)c1ccccc1`, the GI50 is inactive: > 100 µM. For `COC(=O)[C@@H](N1C(=O)c2ccccc2C1=O)C1(C)CC(Cl)=NO1` (some centres undefined), the GI50 was inactive: 60 µM. As for `OCCN(C1=NCCN1)/[N+](=C/c1ccccc1O)[CH-]c1ccccc1O`, the GI50 was inactive: > 100 µM.

As for `CC(=O)CC(=O)c1cc2c(=O)oc(C)cc2oc1=O`, the GI50 is inactive: > 37.5 µM. On to `C=C1C(=O)OC2CC(C)C(C(O)CC(C)O)=CCC12` (centres undefined), for which the GI50 was inactive: 29.7 µM. For `CCOC(=O)N/N=C(\Cc1ccc([N+](=O)[O-])cc1)OCC`, the GI50 is inactive: > 100 µM. For `Fc1ccc(OCc2ccc3nc(-c4ccccc4)c(Cl)nc3c2)cc1`, the GI50 was inactive: 70.5 µM. `CCOC(=O)/C(C#N)=C(/NNc1ccccc1)c1ccncc1C(=O)O`: the GI50 was inactive: > 100 µM.

As to `Cn1c2ccccc2n2c3ncccc3/c(=N/CCCC(=O)O)c(C#N)c12`, the GI50 was inactive: > 100 µM. For `Cc1ccc(CC(Cc2ccc(C)cc2C(=O)O)C(=O)O)cc1` (centres undefined), the GI50 was inactive: > 100 µM.

Consider `O=[N+]([O-])c1nccn1COCCF`, for which the GI50 was inactive: > 100 µM. Next, `NC1=Nc2ccccc2Sc2nc3ccccc3n21`: inactive: 56.5 µM. On to `CSc1nn(C)cc2nc(C)nc1-2`, for which the GI50 was inactive: > 100 µM. Take `Oc1ccc(/C=C/c2cccc(/C=C/c3ccc(O)c(O)c3)n2)cc1O`: the GI50 is inactive: 15.7 µM. For the molecule `Cc1ccc(Cc2n[nH]c(=O)n2Nc2ccccc2)cc1`, the GI50 is inactive: > 100 µM. As for `[O-]c1c[n+](CC[n+]2cc([O-])on2)no1`, the GI50 was inactive: > 100 µM. For the molecule `CC1=CC(=O)/C(=C/NC(=S)Nc2ccc(S(N)(=O)=O)cc2)C(=O)O1`, the GI50 was inactive: > 100 µM. In the case of `O=C1OC(c2cccc(C(F)(F)F)c2)c2ccc3ccccc3c21` (centres undefined), the GI50 was inactive: > 10 µM. For the molecule `CCOC(=O)NC(OCc1ccccc1)(C(=O)OC)C(F)(F)F` (centres undefined), the GI50 was inactive: > 100 µM. As for `NC(=S)N/C=C1\C(=O)Oc2ccccc2C1=O`, the figure is inactive: 44.9 µM. As to `c1ccc2c(c1)nnn2CNc1ccc(N2CCOCC2)cc1`, the GI50 is inactive: > 100 µM. Turning to `Cc1ccc(S(=O)(=O)NC(=O)C2C(=O)CC3(CCCCC3)CC2=O)cc1`, the GI50 is inactive: 25.4 µM. As for `O=C(c1ccccc1)c1c(CC(O)c2cccnc2)n(C(=O)c2ccccc2)c2ccccc12` (centres undefined), the figure is inactive: 33.7 µM; as for `COC(OC)C1OC(CO)C(n2cc(F)c(=O)[nH]c2=O)C1O` (centres undefined), inactive: > 100 µM. As for `CC1(C)CC(C)(C)C1=NNC(N)=O`, the figure is inactive: > 100 µM; as for `CC(C)/C=N\N1C(N)=C(C#N)C(C#N)(C#N)C1C(C)C` (centres undefined), inactive: > 100 µM. As for `CC1(C)C2CC(O)C1CCC2=O` (centres undefined), the figure is inactive: > 100 µM; as for `COc1cc2c(cc1OC)-c1cc3ccccc3c(=O)n1CCC2`, inactive: 9.59 µM; as for `Cc1nc([N+](=O)[O-])cn1CC(=N)N`, inactive: > 100 µM. Regarding `O=C(OC1C2OC(=O)c3cc(O)c(O)c(O)c3Oc3cc4c(c(O)c3O)-c3c(cc(O)c(O)c3O)C(=O)OCC3OC(O)C(OC(=O)c5cc(O)c(O)c(O)c5Oc5cc6c(c(O)c5O)-c5c(cc(O)c(O)c5O)C(=O)OC1C(COC6=O)OC2O)C(OC(=O)c1cc(O)c(O)c(O)c1)C3OC4=O)c1cc(O)c(O)c(O)c1` (centres undefined), the GI50 was inactive: 13.1 µM.

As for `CC(C)C(=O)OCC1CCCN2CCCCC12` (centres undefined), the GI50 was inactive: > 100 µM. As for `C=CCOc1ccccc1C1(O)c2ccccc2C2=NCCCN21` (centres undefined), the GI50 is inactive: 48.4 µM. As to `Cc1c2ccccc2c(C)n2c1nc1cc3ccccc3cc12`, the GI50 was inactive: 1.19 µM. On to `O=C(O)C1CCc2ccc3ccccc3c2C1c1cccc2ccccc12` (centres undefined), for which the GI50 is inactive: 18.2 µM.

As to `O=C1Nc2ccccc2N/C1=C\C(=O)c1ccccc1O`, the GI50 is inactive: > 100 µM. As for `CC(=O)Oc1c2c(c(O)c3ccccc13)C(n1cnc3c(ncn3C3OC(CO)C4OC(C)(C)OC43)c1=N)CCC2` (centres undefined), the figure is inactive: 19.1 µM; as for `O=C(O)/C(=C/C(=O)c1ccc(Cl)cc1)NNc1ccc([N+](=O)[O-])cc1[N+](=O)[O-]`, inactive: 36.2 µM; as for `O=C(OCc1ccccc1)N1CCNCCNCC1`, inactive: > 100 µM. As for `N=C(N)NNC(=O)CCn1[nH]c(=O)c(Cl)c(Cl)c1=O`, the GI50 is inactive: > 100 µM.

For the molecule `CCCCCCC(C)CC(CCCCCC)NCCOC(=O)c1ccc([N+](=O)[O-])cc1` (centres undefined), the GI50 is inactive: 12.5 µM. With `COc1c(OC)c(OC)c(C(=O)/C=C/c2ccccc2)c(OC)c1OC`, the GI50 was inactive: 8.49 µM. Consider `CC1CN=C(Nc2cccc(F)c2)S1` (centres undefined), for which the GI50 is inactive: > 100 µM.

On to `c1ccc(C(c2cccc3c2ccc2ccccc23)C(c2ccccc2)c2cccc3c2ccc2ccccc23)cc1` (centres undefined), for which the GI50 is inactive: > 100 µM. As for `Cc1cc(-c2nc3ccccc3s2)ccc1NC(=O)[C@H](C)N`, the GI50 was inactive: 7.94 µM. As for `O=C1[C@@H]2C(c3ccc(Cl)cc3Cl)=NO[C@@H]2C(=O)N1c1ccc(Cc2ccc(N3C(=O)[C@H]4C(c5ccc(Cl)cc5Cl)=NO[C@H]4C3=O)cc2)cc1`, the figure is inactive: > 100 µM. As for `O=c1[nH]c2cc3cccnc3c(Cl)c2nc1C(F)(F)F`, the figure is inactive: 38 µM. Regarding `COc1ccc(C(=O)Cc2cc(OC)ccc2OC)cc1`, the GI50 is inactive: > 100 µM.

`N#CC(N)(C(=O)CCC(=O)Nc1cccc(Cl)c1)c1ccc(Cl)cc1` (centres undefined): the GI50 was inactive: > 100 µM. For the molecule `C[C@H]1CC[C@@]2(NC1)O[C@H]1C[C@H]3[C@@H]4CC[C@H]5C[C@@H](O)CC[C@]5(C)[C@H]4CC[C@]3(C)[C@H]1[C@@H]2C`, the GI50 was inactive: 75.2 µM. Take `Cc1ccc(-n2cnc3c(N/N=C4\SCC(=O)N4c4ccccc4)ncnc32)cc1`: the GI50 was inactive: 12.8 µM. Turning to `Nc1nncc2c1ccn2C1OC(CO)C(O)C1O` (centres undefined), the GI50 is inactive: > 100 µM. Consider `COc1ccc(/C=C2/SC(c3ccccc3)N(NC(=O)CCCCCCCCC(=O)NN3C(=O)/C(=C\c4ccc(OC)c(OC)c4)SC3c3ccccc3)C2=O)cc1OC` (centres undefined), for which the GI50 is inactive: 74.8 µM.

Take `O=C(NC1C(O)C(O)C(CO)OC1n1cc(F)c(=O)[nH]c1=O)OCc1ccccc1` (centres undefined): the GI50 is inactive: > 100 µM. As for `CC(CO)CCNc1ncnc2c1ncn2CCC(=O)OC(C)(C)C` (centres undefined), the figure is inactive: > 100 µM.

In the case of `O=C(c1ccco1)c1ccccc1C(=O)c1ccco1`, the GI50 was inactive: > 100 µM. As for `O=C(NCc1cccnc1)C1COc2cc(-c3cc(=O)c4ccccc4o3)ccc2O1` (centres undefined), the figure is inactive: > 63.8 µM.

`O=C1/C(=C/c2cccnc2)C(n2cccc2)c2c(Br)sc(Br)c21` (centres undefined): the GI50 is inactive: 1.97 µM. Next, `COc1ccc(NC(C)=O)c(C(=O)CCNC(C)=O)c1`: inactive: > 100 µM.

For `CCc1n[nH]c(=O)n1/N=C/c1ccc(/C=N/n2c(CC)n[nH]c2=O)cc1`, the GI50 is inactive: > 100 µM.

Turning to `Cc1nc2c(nc1C)-c1[nH]c3c(c1C(=O)C2=O)CCCC3=O`, the GI50 is inactive: 9.66 µM.

As to `Cc1ccc(S(=O)(=O)N(CCN)c2cc3c4c(c2)Oc2cccc5c2C4c2c(cccc2O3)O5)cc1`, the GI50 was inactive: 31.9 µM. As for `COc1cc2c(c3c1C=CCO3)C(=O)c1ccccc1C2=O`, the figure is inactive: 53.1 µM; as for `CC1(C)OCC[C@@H]1[Si](C)(C)C`, inactive: > 100 µM. `O=C(O)CCC(NC(=O)c1ccc(Oc2nc3ccccc3nc2C(=O)O)cc1)C(=O)O` (centres undefined): the GI50 is inactive: > 100 µM. Regarding `O=C(c1ccccc1)c1nnn(Cc2cccc(Cl)c2)c1C(=O)c1ccccc1`, the GI50 was inactive: > 100 µM.

In the case of `CCOC(=O)C1=C(O)C2C3CC4C2C(O)=C(C(=O)OCC)C2C1C3C42` (centres undefined), the GI50 was inactive: > 100 µM.

`COc1cc(S(=O)(=O)Nc2ccc(-c3csc(N4C(=O)CSC4c4cccc(Oc5ccccc5)c4)n3)cc2)ccc1Cl` (centres undefined): the GI50 was inactive: 54.3 µM. Next, `CC(=O)/C=C1\CC(=O)N(C)c2ccccc2N1`: inactive: > 100 µM; `CC1(C)[C@H](C(=O)O)N2C(=O)[C@@H](NS(=O)(=O)c3ccc([N+](=O)[O-])cc3)[C@H]2S1(=O)=O`: inactive: > 100 µM; `COc1cccc(-c2cc(O)c3cccnc3n2)c1`: active: 0.309 µM. Turning to `Nc1ccnc2c1ncn2[C@H]1C[C@H](O)[C@@H](CO)O1`, the GI50 was inactive: > 100 µM. Consider `CCC(=O)NCCc1c[nH]c2ccc(OC)cc12`, for which the GI50 is inactive: > 100 µM. As for `CC(CC(=O)O)(CC(=O)O)c1ccccc1`, the figure is inactive: > 100 µM; as for `CCCCCOC(=O)c1cc2cc(CCl)ccc2oc1=O`, inactive: 16 µM.
